# Data: PMC4336329 (PLoS ONE, 2015)
# The whole screen tested about 310,000 compounds, of which about 14,000 (4.5%) showed an effect of 50% or more. Effects have a minus sign here. The list shows a part of the results.
# Biological target: human ether-à-go-go-related gene (hERG) potassium channel (human, UniProt Q12809)
# Test: primary screen, population patch clamp on CHO cells stably expressing hERG
# 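Further: peak tail current of the secondary pulse compared with the same well before compound.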
# human ether-à-go-go-related gene (hERG) potassium channel, sequence (Q12809 whole entry, looked up): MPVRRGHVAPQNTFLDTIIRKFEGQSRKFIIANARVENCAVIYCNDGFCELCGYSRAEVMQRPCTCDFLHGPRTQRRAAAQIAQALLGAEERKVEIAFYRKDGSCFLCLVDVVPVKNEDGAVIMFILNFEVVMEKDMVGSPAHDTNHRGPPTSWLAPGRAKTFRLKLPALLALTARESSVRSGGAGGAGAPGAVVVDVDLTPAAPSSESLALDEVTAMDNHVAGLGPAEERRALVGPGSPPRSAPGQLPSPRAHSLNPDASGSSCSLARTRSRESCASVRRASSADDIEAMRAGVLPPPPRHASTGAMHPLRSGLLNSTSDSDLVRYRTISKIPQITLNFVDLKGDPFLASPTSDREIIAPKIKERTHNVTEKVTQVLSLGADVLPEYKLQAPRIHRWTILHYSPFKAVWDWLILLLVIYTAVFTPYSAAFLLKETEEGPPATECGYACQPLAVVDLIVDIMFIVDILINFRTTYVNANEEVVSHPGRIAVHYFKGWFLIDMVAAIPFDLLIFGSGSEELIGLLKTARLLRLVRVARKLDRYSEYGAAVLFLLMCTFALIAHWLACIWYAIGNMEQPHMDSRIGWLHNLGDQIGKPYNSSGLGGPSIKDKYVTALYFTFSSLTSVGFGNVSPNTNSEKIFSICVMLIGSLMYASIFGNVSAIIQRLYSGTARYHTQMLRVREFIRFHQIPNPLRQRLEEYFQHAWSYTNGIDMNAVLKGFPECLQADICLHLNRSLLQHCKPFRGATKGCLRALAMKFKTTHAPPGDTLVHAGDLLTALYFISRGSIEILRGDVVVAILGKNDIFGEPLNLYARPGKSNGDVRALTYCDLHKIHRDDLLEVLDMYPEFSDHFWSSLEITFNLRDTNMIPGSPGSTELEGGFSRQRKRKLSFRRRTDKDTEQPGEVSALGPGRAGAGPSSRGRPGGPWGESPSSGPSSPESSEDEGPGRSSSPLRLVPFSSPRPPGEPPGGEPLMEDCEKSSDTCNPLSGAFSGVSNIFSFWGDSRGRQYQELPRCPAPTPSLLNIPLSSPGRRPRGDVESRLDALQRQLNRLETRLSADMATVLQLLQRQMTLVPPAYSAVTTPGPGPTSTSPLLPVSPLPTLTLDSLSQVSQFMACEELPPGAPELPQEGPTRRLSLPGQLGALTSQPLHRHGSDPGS
row,SMILES,"hERG current change (%, negative = inhibition) at 10uM"
1,COC(=O)c1cc(-c2c(C)oc3cc(OC)ccc3c2=O)c(C)o1,6.28%
2,O=C1C2CCCN2C(c2ccc(Cl)c(Cl)c2)N1c1ccccn1 (centres unmarked),-10%
3,CCNC(=O)COC(=O)c1ccc(S(=O)(=O)N2CCCCCC2)cc1,-10.3%
4,COc1ccc(N2CC(C(=O)N/N=C/c3ccc([N+](=O)[O-])cc3)CC2=O)cc1 (centres unmarked),-59.5%
5,CC1CCC2C(=O)N(c3cccc(C(=O)Nc4ccccc4Cl)c3)C(=O)C2C1 (centres unmarked),16.8%
6,O=[N+]([O-])c1c(C(Cl)Cl)nn(-c2ccccc2)c1N1CCOCC1,-6.68%
7,CCN(C(=O)c1cn(CC)c(=O)c2cc(OC)c(OC)cc12)c1ccccc1C,6.58%
8,COCCn1c(SCC(=O)N2CCCCC2)nc2cccnc21,-1.5%
9,Fc1cc(F)c2nc(N3CCOCC3)sc2c1,5.05%
10,CCOc1ccc(S(=O)(=O)Nc2cccc(C(=O)NCC(c3ccccc3)N(C)C)c2)cc1 (centres unmarked),-12%
11,Br.COc1ccc(-c2ccncc2)cc1OC,11.9%
12,CCOC(=O)C1CCN(C(=O)CN2C(=O)C(C(C)C)Oc3ccccc32)CC1 (centres unmarked),-12.2%
13,COc1ccc(NC(=O)c2ccc3ncsc3c2)c2ccccc12,4.56%
14,OC(CNCCCCNCC(O)C(F)(F)F)C(F)(F)F (centres unmarked),19.8%
15,COc1ccc(CCNC(=O)C2CCCN2C(=O)Nc2cccc(C(C)=O)c2)cc1OC (centres unmarked),-3.26%
16,COCCn1c(=O)c2c(nc3n2CC(C)CN3Cc2ccccc2)n(C)c1=O (centres unmarked),-47.6%
17,Cn1c(SCC(=O)NCc2cccs2)nnc1-c1ccc(S(=O)(=O)N2CCCC2)cc1,-5.73%
18,Cc1cc(NC(=O)CN(C)CCOc2ccccc2)ccc1Br.O=C(O)C(=O)O,5.22%
19,COC(=O)[C@H](CC(C)C)NC(=O)Nc1ccc(S(N)(=O)=O)cc1,23.3%

row,SMILES,"hERG current change (%, negative = inhibition) at 10uM"
1,COc1ccc(Cc2nnc(SCC(=O)Nc3cc(Cl)ccc3OC)[nH]c2=O)cc1,1.24%
2,CCSc1nc2sc3c(c2c2[n+]1CC(CBr)O2)CCCC3.[Br-] (centres unmarked),-0.684%
3,CCc1nc(NCCN2CCOCC2)c2oc3ccccc3c2n1.Cl,-28.2%
4,Cn1ncc([N+](=O)[O-])c1C(=O)Nc1cccc2ccccc12,-7.54%
5,CCCCN(C(=S)Nc1ccc(F)cc1)c1c(N)n(CCC)c(=O)[nH]c1=O,10.8%
6,CCCn1c(=O)c2[nH]cnc2n(-c2ccccc2C)c1=O,4.87%
7,COc1ccc(S(=O)(=O)N2CCN(C)CC2)c(C)c1,3.56%
8,Cc1cccc(CNC(=O)CCn2ccc3cc(S(=O)(=O)N4CCCC4)ccc32)c1,-19.5%
9,CCC1Oc2ccccc2N(Cc2ccccc2C)C1=O (centres unmarked),-25.5%
10,Cc1csc(SCC(=O)NC(C)c2ccc(F)cc2)n1 (centres unmarked),10.3%
11,Cc1ccc(NC(=O)c2nccnc2C(=O)O)cc1C,9.19%
12,O=C(COC(=O)c1ccccc1O)Nc1ccc(OC(F)F)cc1,2.74%
13,Cc1cc(C)cc(N(CC(=O)NCC2CCCO2)S(=O)(=O)c2c(C)noc2C)c1 (centres unmarked),-5.66%
14,CCCCN(C(=O)CCC(=O)O)C1CC(=O)N(c2ccc(OCCC)cc2)C1=O (centres unmarked),20.7%
15,COC(=O)CN1C(=O)C2(C(C#N)=C(N)Oc3c2c(C)nn3-c2ccccc2)c2ccccc21 (centres unmarked),-12.3%
16,O=C(CN1CCCC1=O)NCCc1ccccc1,7.17%
17,COC(=O)c1sccc1NC(=O)C1C2C=CC(C2)C1C(=O)O (centres unmarked),12.3%
18,COc1cc2c(cc1OC)[C@@H]1C(=O)c3ccc4c(c3O[C@@H]1CO2)C[C@H](C(C)C)O4,10.6%
19,COCCNC(=S)N/N=C(\C)c1ccccc1O,5.51%

row,SMILES,"hERG current change (%, negative = inhibition) at 10uM"
1,COc1ccc(NC(=O)Nc2ccc(N3CCOCC3)c3nonc23)c(OC)c1,20.3%
2,CCN1CCN(C(=O)c2cc(-c3ccco3)nc3ccccc23)CC1,-38.9%
3,O=C(O)c1cccc(N2C(=O)c3cccc(Oc4ccc(Cl)cc4)c3C2=O)c1,16.2%
4,COc1ccc(CN(C)CC(O)COc2ccc(-c3ccccc3)cc2)cc1OC (centres unmarked),-69.4%
5,O=C1/C(=C/c2ccccc2)CCCc2ccccc21,9.66%
6,COc1ccc(C2CC(=O)N3CN(c4ccc(C)c(Cl)c4)CSC3=C2C#N)cc1OC (centres unmarked),5.57%
7,CCOC(=O)c1c(NC(=O)CN2C(=O)NC(C)(c3ccc(OC(F)F)cc3)C2=O)sc(C)c1C (centres unmarked),4.13%
8,Cc1cc(=O)nc2c3ccccc3n(CC(=O)NC(C)c3ccc4c(c3)OCCO4)n12 (centres unmarked),8.95%
9,CCOc1ccccc1-n1c(SCC(=O)Nc2ccc(CC)cc2)nc2n[nH]c(C)c2c1=N,-1.89%
10,Clc1ccc2nc(N3CCNCC3)nc(-c3ccccc3)c2c1,-59.1%
11,CCCCNC(=O)NCC(=O)Nc1ccc(F)c(F)c1,7.8%
12,CCOC(=O)c1cc(-c2ccccc2)sc1NC(=O)C(C)OC(=O)c1cccnc1Cl (centres unmarked),-3.24%
13,C[C@H]1[C@H](c2ccccc2)C[C@@H](C(=O)O)C1(C)C,12.2%
14,CCOC(=O)C1=C(COc2ccccc2)NC(=O)NC1c1ccc(Cl)cc1 (centres unmarked),-21.7%
15,O=C(NC(Cc1ccccc1)C(=O)O)/C(=C/c1cccc([N+](=O)[O-])c1)NC(=O)c1ccco1 (centres unmarked),-11.4%
16,COCCn1c(-c2ccc(Cl)cc2)cnc1SCC(=O)NCc1cccs1,-37.6%
17,COc1cccc(C2(C#N)CCN(C)CC2)c1,10.5%
18,COCCn1c(SCC(=O)N2CCCCCC2)nc2c([nH]c3ccccc32)c1=O,-5.06%
